Read counts are not given, so values of variants with three or more changes are uncertain.
B1: CPEB3 Ribozyme (parent)
chain: UAACAGGGGGCCACAGCAGAAGCGUUCACGUCGCAGCCCCUGUCAGAUUCUGGUGAAUCUGCGAAUUCUGCUGUAUAUCUC

Variants of: B1
Experiment: self-cleavage, relative activity (ratio to wild type); higher = more cleavage; in vitro, sequencing
How it was run: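 Libraries of CPEB3 self-cleaving ribozyme mutants came from rounds of error-prone PCR and carried barcodes, which DNA sequencing matched to variants. In vitro transcription used T7 RNA polymerase at 37°C for 5 hours, with a further 15 min in DNase I before EDTA stopped the reaction; the ribozymes cleaved during both steps. The RNA was reverse transcribed with template switching and sequenced on Illumina. Relative activity is the cleaved/total read fraction of a variant divided by that of the unmutated ribozyme, averaged over three batches with at least 5 reads.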

Q: Which self-cleavage does the source give for UAACAGGGGGCCACAGCGGAAGUGUUCGCGUCGCAGCCCCAGUCAAAUUCUGGUGAAUCUGCGAAUUCUGCUGUAUAUCUC [A18G C23U A28G U41A G46A] here?
A: Its self-cleavage is 0.06.

Q: With UAACAGGGGGCCACAGCGGAAGCGUUCACGUCGGAGCCCCUGUCAGAUUCUGGUGAAUCUGCGAAUUCUGCUGUAUAGCUC [A18G C34G U78G] as the variant, how does the self-cleavage read?
A: The self-cleavage was 0.13.

Q: With UAACAGGGGGCCACAGCGGAAGCGAUCACGUCGCAGCCCCCGUCAGAUACUCGUGAAUCUGCGAAUUCUGCUGCAUAUCUC [A18G U25A U41C U49A G52C U74C] as the variant, how does the self-cleavage read?
A: The self-cleavage was 0.06.

Q: Which self-cleavage does the source give for UAACAGGGGGCCACAGCGGAAGCGUUCACGUCGCAGCCCCUGUUAGAUUCUGGUGAAUCUGCGAAAUCUGCUGUAUAUCUC [A18G C44U U66A] here?
A: The self-cleavage was 0.07.

Q: For UAACAGGGGGCCACAGCGGAAGCGUUCACGUUGCAGCCCUUGUCAGAUUCUGGUGAAUCUGCGAAUCCUGCUGUAUAUCUC [A18G C32U C40U U67C], which self-cleavage is on record?
A: The self-cleavage was 0.08.

Q: Which self-cleavage does the source give for UAACAGGGGGCCACAGCGGAAGCGUUCACUUCGCAGCCCCUGUCAGAUUCUGGUGAACCAGCGAAUUAUGCUGUAUAUCUC [A18G G30U U58C U60A C68A] here?
A: The self-cleavage was 0.25.

Q: For UAACAGGGGGCCACAGCGGAAGCGUUCACAUCGCAGCCCCUGUCAGAUUCUGGUGUAUCUGCGAGUUCUGCUGUAUAUCUC [A18G G30A A56U A65G], which self-cleavage is on record?
A: The self-cleavage was 0.06.

Q: Which self-cleavage does the source give for UAACAGGGGGCCACAGCGGAAGCGUUCACGUCGCAGCACCUGUCAGAUUCUGGUGAAUCUGCGAAUUCUGCGGUAUAUCUC [A18G C38A U72G] here?
A: The self-cleavage was 0.03.

Q: Which self-cleavage does the source give for UAACAGGGGGCCACAGCGGAAGCGUUCAUGUCGCAGCCCCAGUCAGAUUCUGGCGAAUCUGCGAAUUCUGCUGUAUAUCUC [A18G C29U U41A U54C] here?
A: Its self-cleavage is 0.11.

Q: For UAACAGGGGGCCACAGCGGAAGCGUUCACGUCGCAGCCCCUGUCAGAUUCUGGUGAAUCUGCGGAUUCUGCUGUAUAUCAC [A18G A64G U80A], which self-cleavage is on record?
A: The self-cleavage was 0.7.

Q: With UAACAGGGGGCCACAGCGGAAGCGUUCACGUGGCAGCCCCUGUCAGAUUCUGGUGAAUCUGCGAGUUCUGCUGUAUAUCUC [A18G C32G A65G] as the variant, how does the self-cleavage read?
A: Its self-cleavage is 0.26.

Q: For UAACAGGGGGCCACAGCGGAAGCGUUCACGUAGCAGCCCCUGUCAGAUUCUGGUGAAUCUGCGAAUACUGCUGUACAUCUC [A18G C32A U67A U76C], which self-cleavage is on record?
A: Its self-cleavage is 0.11.

Q: With UAACAGGGGGCCACAGCGGAAGCGUUCACGUCGCAGCCCCUGUCAGAUUCUGGUGAAUCUGCCAAUUCCGCUGUAUAUCUC [A18G G63C U69C] as the variant, how does the self-cleavage read?
A: Its self-cleavage is 0.65.

Q: With UAACAGGGGGCCACAGCGGAAGCGCUCACGUCGCAGCCCCUGUCAGAUUCUGGUGAGCCUGCGAAUUCCGCUGUAUUCCUC [A18G U25C A57G U58C U69C A77U U78C] as the variant, how does the self-cleavage read?
A: Its self-cleavage is 0.12.

Q: With UAACAGGGGGCCACAGCGGAAGCGUUCACGUCGCAUCCCCUGACAGAUUCUGGUGAAUCUGUGAAUUCUGCUGUAUAUCUC [A18G G36U U43A C62U] as the variant, how does the self-cleavage read?
A: Its self-cleavage is 0.11.

Q: Which self-cleavage does the source give for UAACAGGGGGCCACAGCGGAAGUGUUCACGUCGCAGCCCCUGUCAGAUUCUGGUGAAUCUGCGAAUUCUGCUGUAUAACUC [A18G C23U U78A] here?
A: Its self-cleavage is 0.12.

Q: For UAACAGGGGGCCACAGCGGAAGCGUUCAUGUCGCAGCCCCCGCCAGAUUCUGGUGGAUCUGCGAAUUCUGCUGUAUAUCUC [A18G C29U U41C U43C A56G], which self-cleavage is on record?
A: The self-cleavage was 0.2.

Q: For UAACAGGGGGCCACAGCGGAAGCGUUCACGUCGCAGCCCAAGUCAGAUUCUGGUGAAUCUGCGGAUUCUGCUGUAUAUCUC [A18G C40A U41A A64G], which self-cleavage is on record?
A: Its self-cleavage is 0.22.

Q: For UAACAGGGGGCCACAGCGGAAGCGUUCACGUCGCAGCCACUGUCAGAUUCUGGUGAAUCUGCGAAUUCUGCUGAAUAUCUC [A18G C39A U74A], which self-cleavage is on record?
A: Its self-cleavage is 0.13.

Q: For UAACAGGGGGCCACAGCGGAAGCGUUCACGUCACAGCCCCUGUUAGAUUCUGGUGAAUCUGCGAGUUCUGCUGUAUAUCUC [A18G G33A C44U A65G], which self-cleavage is on record?
A: The self-cleavage was 0.05.

Q: For UAACAGGGGGCCACAGCGGAAGCGUUCACGUAGCAGCCCCCGUCAGAUUCUGGUGAAUCAGCGAAUUCUGCUGUAUAUCUC [A18G C32A U41C U60A], which self-cleavage is on record?
A: The self-cleavage was 0.13.

Q: With UAACAGGGGGCCACAGCGGAAGCGUUCACGUCGCAGCCCCUGUCAAAUUCUGGUGAUUCUGCGAAUUCUGCUGUACAUCUC [A18G G46A A57U U76C] as the variant, how does the self-cleavage read?
A: The self-cleavage was 0.

Q: Which self-cleavage does the source give for UAACAGGGGGCCACAGCGGAAGCGUUCACGUCGCAGCCCCUGUCAGAUUCUGGUGAAUCUGCUAAUUCUGCUGUAUGUCUC [A18G G63U A77G] here?
A: Its self-cleavage is 1.

Q: With UAACAGGGGGCCACAGCGGAAGCGUUCAUGUCGCAGCCCCUGUCAGAUCCUGGUGAUUCUGCGAACUCAGCUGUAUAUCUC [A18G C29U U49C A57U U66C U69A] as the variant, how does the self-cleavage read?
A: The self-cleavage was 0.12.

Q: Which self-cleavage does the source give for UAACAGGGGGCCACAGCGGAAGCGACCACGACGCAGCCCCUGUCAGAUUCUGGUGAAUCUGCGAAUUCAGCUGUAUAUCUC [A18G U25A U26C U31A U69A] here?
A: The self-cleavage was 0.24.

Q: With UAACAGGGGGCCACAGCGGAAGCGUUCACGUCGCAACCCCCGUCAGAUUCUGGUGAAUCUGCGAAUUCUGCUGUAUAUCUC [A18G G36A U41C] as the variant, how does the self-cleavage read?
A: The self-cleavage was 0.52.

Q: For UAACAGGGGGCCACAGCGGAAGCGCUCACGUCGCUGCCCCUGUCAGAUUCUGGUGAAUCUGCGAAUUCUGCUGUAUAUCUC [A18G U25C A35U], which self-cleavage is on record?
A: Its self-cleavage is 0.27.

Q: For UAACAGGGGGCCACAGCGGAAGCAUUCUCGUCGCAGCCCCUGUCAGAUUCUGGUGAAUCUGCGAAUUCCGCUGUAUAUCUC [A18G G24A A28U U69C], which self-cleavage is on record?
A: Its self-cleavage is 0.18.

Q: For UAACAGGGGGCCACAGCGGAAGCGUUCACGUCGCAUCCCGUGUCAGAUUCUGGUGAAUCUGCGAAUUCUGCCGUAUAUCUC [A18G G36U C40G U72C], which self-cleavage is on record?
A: Its self-cleavage is 0.06.

Q: Which self-cleavage does the source give for UAACAGGGGGCCACAGCGGAAGCGUUCACGUCGCAGCCCCUGUCAGAUUCUGGUGAAUCUGCGAGUUCCGCUGCAUACCUC [A18G A65G U69C U74C U78C] here?
A: Its self-cleavage is 0.86.

Q: For UAACAGGGGGCCACAGCGGAAGCGUUCACGUCGCAGCCCCUGUCAGAUUCUAGUGAAUCUGCGUAUUCUACUGCAUAUCAC [A18G G52A A64U G70A U74C U80A], which self-cleavage is on record?
A: Its self-cleavage is 0.2.

Q: With UAACAGGGGGCCACAGCGUAAGCGUUCACGUCGCAGCCCUUGUCAGAUUCUGGUGAAUCCGCGAAUUCUGCUGUAUAUCUC [A18G G19U C40U U60C] as the variant, how does the self-cleavage read?
A: Its self-cleavage is 0.06.

Q: With UAACAGGGGGCCACAGCGGAAGCGUUCACGUCACAGCCCCUGUCAGUUUCUGGUGAAUCUGCGAAUUCUGCUGUAUAUCUC [A18G G33A A47U] as the variant, how does the self-cleavage read?
A: The self-cleavage was 0.12.

Q: For UAACAGGGGGCCACAGCGGAAGUGUUCACGUCGCAGCCCCUGUCAGAUUCUGGUGAGUCUGCGAAUUCUGCUGUAUAUCCC [A18G C23U A57G U80C], which self-cleavage is on record?
A: Its self-cleavage is 0.18.

From the RNAGym collection of RNA variant scans (doi:10.1093/nar/gkz1192)
